Screen size: about 310,000 compounds; about 14,000 (4.5%) showed an effect of 50% or more. Effects have a minus sign here. The list shows a part of the results.
Each molecule was assayed against human ether-à-go-go-related gene (hERG) potassium channel (human, UniProt Q12809) (assay: primary screen, population patch clamp on CHO cells stably expressing hERG).
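Also: peak tail current of the secondary pulse compared with the same well before compound.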

Chain of human ether-à-go-go-related gene (hERG) potassium channel (Q12809 whole entry, looked up): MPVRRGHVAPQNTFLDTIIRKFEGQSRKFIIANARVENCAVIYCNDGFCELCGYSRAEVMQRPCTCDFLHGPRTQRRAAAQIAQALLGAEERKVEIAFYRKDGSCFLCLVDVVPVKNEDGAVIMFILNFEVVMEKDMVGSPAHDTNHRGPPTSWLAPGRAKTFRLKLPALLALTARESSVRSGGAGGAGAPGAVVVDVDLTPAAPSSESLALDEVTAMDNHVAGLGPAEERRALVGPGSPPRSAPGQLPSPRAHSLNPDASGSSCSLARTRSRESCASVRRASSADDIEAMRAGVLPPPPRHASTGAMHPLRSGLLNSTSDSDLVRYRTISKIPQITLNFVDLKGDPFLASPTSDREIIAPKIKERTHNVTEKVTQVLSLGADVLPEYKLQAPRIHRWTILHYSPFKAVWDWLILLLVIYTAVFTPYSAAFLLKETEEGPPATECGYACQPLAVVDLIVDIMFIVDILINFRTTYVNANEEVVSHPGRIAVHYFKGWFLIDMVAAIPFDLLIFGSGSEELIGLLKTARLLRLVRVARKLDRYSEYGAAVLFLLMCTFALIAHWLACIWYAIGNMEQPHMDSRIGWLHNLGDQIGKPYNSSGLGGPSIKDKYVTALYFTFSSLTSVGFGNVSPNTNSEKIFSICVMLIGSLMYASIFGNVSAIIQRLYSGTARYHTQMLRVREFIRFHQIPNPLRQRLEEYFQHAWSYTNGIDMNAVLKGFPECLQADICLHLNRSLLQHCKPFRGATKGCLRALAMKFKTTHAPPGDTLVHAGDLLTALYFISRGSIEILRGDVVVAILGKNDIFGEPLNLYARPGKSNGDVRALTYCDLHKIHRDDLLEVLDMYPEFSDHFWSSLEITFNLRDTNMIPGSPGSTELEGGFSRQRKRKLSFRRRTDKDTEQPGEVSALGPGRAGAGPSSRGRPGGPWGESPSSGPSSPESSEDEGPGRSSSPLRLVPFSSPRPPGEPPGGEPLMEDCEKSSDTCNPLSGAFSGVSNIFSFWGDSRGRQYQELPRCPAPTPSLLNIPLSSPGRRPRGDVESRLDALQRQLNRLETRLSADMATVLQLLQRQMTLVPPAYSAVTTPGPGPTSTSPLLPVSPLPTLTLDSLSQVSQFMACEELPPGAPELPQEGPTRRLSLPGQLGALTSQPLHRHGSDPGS

SMILES | hERG current change (%, negative = inhibition) at 10uM [%]
COc1ccc(CC(=O)NCc2ccc(-n3cccc3)cc2)cc1OC | -6.68
CCOC(=O)c1ccc(NS(=O)(=O)c2ccc3c(c2)n(C)c(=O)n3C)cc1 | 11.9
CC(Sc1nnnn1-c1ccccc1)C(=O)Nc1ccc(Cl)cn1 (centres unmarked) | -54.2
COc1cccc(-c2cc(C(=O)N3CCN(C(=O)c4ccco4)CC3)[nH]n2)c1 | -16.2
COc1ccc(S(=O)(=O)N(CCC(N)=O)Cc2ccco2)cc1OC | 9.51
CCOC(=O)C1C(=O)NC(SCC(N)=O)=C(C#N)C1c1ccccc1OCC (centres unmarked) | 6.84
CCCOc1ccc(-c2nnc(-c3cccs3)o2)cc1 | 6.65
COc1cccc(NC(=S)C(C#N)=C2N(C)c3ccccc3N2C)c1 | 4.88
O=[N+]([O-])c1ccc(Cl)c(/C=N/Nc2nc(N3CCOCC3)nc(N3CCOCC3)n2)c1 | 8.25
C=C(C)CC1(NC(C)c2ccccc2)CCCCC1 (centres unmarked) | 4
CC(C)[C@H](NC(=O)N1CC(=O)Nc2ccccc21)C(=O)N[C@@H](C(=O)O)c1ccccc1 | 13.3
Cc1[nH]c(-c2ccco2)nc1C(=O)O | -10.7
Cc1cc(C)nc(N/N=C/c2ccc([N+](=O)[O-])o2)n1 | 2.14
O=C(CSc1ccc(Cl)cc1)Nc1nnc(-c2ccco2)o1 | -12.2
C=CCOc1cccc(CNCc2cccnc2)c1.Cl | 21
CCOc1cc(N2CCOCC2)c(OCC)cc1NC(=O)[C@H](C)N1C(=O)C2CC=CCC2C1=O (some centres unmarked) | 3.46
CSCCC(NS(=O)(=O)c1ccccc1F)C(=O)NCc1ccncc1 (centres unmarked) | 10.9
O=c1c2ccccc2nnn1CSc1ccccc1 | -8.25
COc1ccc(CNCCNC(=O)c2cccs2)cc1OC.O=C(O)C(=O)O | -35.4
Cn1nc(-c2ccc(Cl)cc2)cc1NC(=O)CSCC(=O)O | 19.9
CCOC(=O)c1cc2occc2n1CC(=O)N1CCN(C(=O)c2ccco2)CC1 | -36.8
COc1ccc(-n2c(Cc3cccn3C)nnc2SCC(=O)N2CCOCC2)cc1 | 4.84
CC(C)N(C(=O)CSc1nnc(Cn2nnc3ccccc32)n1C)C(C)C | -3.04

SMILES | hERG current change (%, negative = inhibition) at 10uM [%]
CCOP(=O)(OCC)C(Nc1ccccc1)c1cccnc1 (centres unmarked) | 12.3
COc1ccc(C(=O)OCc2cc(C)ccc2C)cc1S(=O)(=O)N1CCCC1 | -14.3
Cc1cc(NC(=O)c2ccc(Cl)c(S(=O)(=O)N3CCCCC3)c2)no1 | 7.19
O=C(CSc1nnnn1-c1ccc(F)cc1)Nc1nc2ccccc2s1 | 14.7
Cl.O=C(OCCN1CCOCC1)c1ccccc1 | 14.6
Cc1cccc(C)c1NC(=O)c1ccc(N2CCCC2=O)cc1 | -13.6
COc1cc(C2C(C(=O)c3ccc(C)o3)=C(O)C(=O)N2Cc2ccccc2)ccc1O (centres unmarked) | 9.1
CSc1ccc(C(=S)N2CCN(C)CC2)cc1 | -30.1
O=C(NCCN1CCN(c2ccccc2)CC1)c1cccn2c(=O)c3cc(Cl)ccc3nc12 | -45.4
CC(C)(C)NC(=O)C(c1cccs1)N(Cc1ccc(F)cc1)C(=O)c1csnn1 (centres unmarked) | -16.3
COc1ccc(N(CC(=O)Nc2ccc3c(c2)OCO3)S(=O)(=O)c2ccccc2)c(OC)c1 | -5.01
Cc1ccc(-c2nc(CS(=O)CC(=O)NCc3ccc(F)cc3)c(C)o2)cc1 (centres unmarked) | 14.8
CC1(C)Nc2ccccc2C(=O)N1NC(=O)c1ccccc1 | 2.48
Cc1cc(NS(=O)(=O)c2ccc(NC(=O)/C=C/c3c(F)cccc3Cl)cc2)no1 | -0.145
O=[N+]([O-])c1ccc(N2CCN(c3ccccc3Cl)CC2)cn1 | -34.3
CCOC(=O)c1ccc(NC(=S)N2CCC(C(N)=O)CC2)cc1 | 0.421
COc1ccc(NC(=O)CC(c2ccc(F)cc2)c2ccc(OC(C)C)cc2)cc1 (centres unmarked) | 3.91
COc1ccc(NC2CCCN(C(=O)Cn3ccc(C)n3)C2)cc1OC (centres unmarked) | 21.5
Cc1nc2cc(C(=O)O)ccc2n1-c1ccccc1 | 17.1
COc1cc(/C=N/NC(=O)C(C)n2nnc3ccccc32)ccc1O (centres unmarked) | 3.84
O=C(CCCN1C(=O)/C(=C/c2ccccc2)SC1=S)Nc1ccccc1O | 22.9
CCCCn1c(SCC(=O)c2ccc(O)c(O)c2)nc2ccsc2c1=O | -34.7
COc1ccc(Cl)cc1NC(=O)NCc1ccc2c(c1)OCO2 | -20.8

SMILES | hERG current change (%, negative = inhibition) at 10uM [%]
O=C1C=C(N2CCOCC2)CCC1 | 11.1
O=[N+]([O-])c1cccc(/C([O-])=C(/C(=S)Nc2ccccc2F)[n+]2ccccc2)c1 | -6.87
CNc1nc(SC(C)C(=O)Nc2ccc(Cl)c(Cl)c2)nc(N2CCOCC2)n1 (centres unmarked) | 19.6
CC(C)N(C(=O)CSc1ncnc2sc(-c3ccccc3)cc12)C(C)C | 9.99
c1ccc(-c2noc(-c3ccco3)n2)nc1 | -14.5
CCNC(=O)c1c(C)[nH]c(C(=O)OCC)c1C | 9.87
CN(C)C=O.Cc1cccc(-n2nnnc2SCC(=O)N(CC(C)C)c2c(N)n(CC(C)C)c(=O)[nH]c2=O)c1 | 3.76
CCc1cccc(CC)c1NC(=S)N(CCN(C)C)C(C)c1cccnc1 (centres unmarked) | -15.4
ON/C=N/C(=S)Nc1ncc(C(F)(F)F)cc1Cl | -10.6
O=C(N/N=C/c1c(O)ccc2ccccc12)c1ccc(Br)o1 | 8.26
N#Cc1ccc(-c2ccccc2)nc1SCC(=O)c1cc2ccccc2oc1=O | 22.1
S=c1[nH]nc(-c2ccco2)n1/N=C/c1ccc(Cl)cc1 | 10.6
COc1ccc(CNC(=O)C2=C(C)C(=O)OC23CCC(C)CC3)cc1 (centres unmarked) | 11.5
COc1ccc(Br)cc1/C(C)=N/NC1=NCCN1.Cl | -26.7
COc1ccc(-c2nnn(CC(=O)N3CCN(c4ccccc4OC)CC3)n2)cc1OC | 19.3
COCCC(=O)N1CCC(Oc2ccc(C(=O)NCCSC)cc2)CC1 | 13.6
O=C(/C=C/c1ccc([N+](=O)[O-])cc1)NCc1ccco1 | -24.1
O=C(CNS(=O)(=O)c1ccc(Cl)c(C(F)(F)F)c1)NC1CCCCCC1 | 4.24
CN(C)c1ncc(S(=O)(=O)c2ccccc2)c(=O)[nH]1 | 17.7
NCC(O)CN(c1ccccc1)c1ccccc1 (centres unmarked) | 12
O=C(O)C1=C[C@@H](c2coc3ccccc3c2=O)C[C@@H](OCCCCO)O1 | 22.8
CC(C)(CNC(=O)Cc1ccc(NS(=O)(=O)c2cccc(C(F)(F)F)c2)cc1)N1CCOCC1 | -44.3
O=C(CC(=O)Nc1ccccc1[N+](=O)[O-])Nc1ccccc1[N+](=O)[O-] | -6.49

SMILES | hERG current change (%, negative = inhibition) at 10uM [%]
O=C(Nc1ccc(N2CCN(C(=O)c3ccco3)CC2)cc1)c1cc(Br)ccc1Cl | -7.3
O=C(COC(=O)/C=C/c1ccco1)Nc1ncc(Cl)cc1Cl | 2.35
C=CCOc1ccc(/C=C/C(=O)OCC(=O)NC2CCCCCCC2)cc1 | 20.4
O=C(CN1CCOCC1)NCCC12CC3CC(CC(C3)C1)C2 | -9.62
COc1cccc(NC(=O)CN2C(=O)NC(c3ccccc3)(c3ccccc3)C2=O)c1 | 3.39
O=C(O)c1c(-c2ccc(Cl)cc2)cn2ccccc12 | 21.2
CCOc1nc2cnccc2n(CC(=O)Nc2c(F)c(F)cc(F)c2F)c1=O | 15.2
COc1cccc(OCC(=O)Nc2c3c(nn2-c2ccc(F)cc2)CS(=O)(=O)C3)c1 | 6.63
CC1CCCCN1C(=O)COC(=O)CNC(=O)c1sc2ccccc2c1Cl (centres unmarked) | -7.18
CCN(C(=O)Cn1cnc2c1c(=O)n(C)c(=O)n2C)C1CCS(=O)(=O)C1 (centres unmarked) | 1.71
CSc1ncccc1C(=O)OCC(=O)c1ccc(S(=O)(=O)N2CCCCC2)cc1 | 23.5
Cc1c(Cl)cccc1NC(=O)NNC(=O)CCc1ccccc1 | 19.9
O=C(CN1C(=O)NC2(CCCCCC2)C1=O)N1CCCCC1 | -2.23
O=C(Cc1ccc(Cl)cc1)N1CCOCC1 | 5.91
Cc1nc2sccn2c(=O)c1S(=O)(=O)N1CCN(c2cccc(C(F)(F)F)c2)CC1 | -30.2
O=C1CSC(=Nc2ccccc2)N1 | 2.24
CCOC(=O)N1CCN(C(=O)c2cccn3c(=O)c4sccc4nc23)CC1 | -35.9
Cc1ncoc1C(=O)N1CCCC(C(=O)c2ccc(C(F)(F)F)cc2)C1 (centres unmarked) | -10.6
Oc1[nH]c2ccc(Br)cc2c1N=Nc1ccc(F)cc1 | 15.7
COc1ccc(NC(=O)CN(C)C(=O)CC2CCCCC2)cc1 | 3.71

From article PMC4336329 (PLoS ONE, 2015)
